{"source": "PubChem BioAssay (Tox21)", "key": {"[1]": {"experiment": "qHTS assay to identify small molecule antagonists of the estrogen receptor alpha (ER-alpha) signaling pathway - cell viability counter screen (AID 743074; calls by dose curve; also: nearly all actives have a fitted effect of over 45% in size)"}, "[2]": {"experiment": "qHTS assay to identify small molecule antagonists of the estrogen receptor alpha (ER-alpha) signaling pathway using the BG1 cell line - cell viability counter screen (AID 743081);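 also: compound given together with 17beta-estradiol as the ER stimulus; nearly all actives have a fitted effect of over 45% in size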; as to activity change, negative = cytotoxicity: % is scaled to controls: 0 for no effect and ±100 for the full control effect"}, "[3]": {"molecular_target": "Aromatase (Homo sapiens) (UniProt P11511)", "sequence (P11511 whole entry, looked up)": "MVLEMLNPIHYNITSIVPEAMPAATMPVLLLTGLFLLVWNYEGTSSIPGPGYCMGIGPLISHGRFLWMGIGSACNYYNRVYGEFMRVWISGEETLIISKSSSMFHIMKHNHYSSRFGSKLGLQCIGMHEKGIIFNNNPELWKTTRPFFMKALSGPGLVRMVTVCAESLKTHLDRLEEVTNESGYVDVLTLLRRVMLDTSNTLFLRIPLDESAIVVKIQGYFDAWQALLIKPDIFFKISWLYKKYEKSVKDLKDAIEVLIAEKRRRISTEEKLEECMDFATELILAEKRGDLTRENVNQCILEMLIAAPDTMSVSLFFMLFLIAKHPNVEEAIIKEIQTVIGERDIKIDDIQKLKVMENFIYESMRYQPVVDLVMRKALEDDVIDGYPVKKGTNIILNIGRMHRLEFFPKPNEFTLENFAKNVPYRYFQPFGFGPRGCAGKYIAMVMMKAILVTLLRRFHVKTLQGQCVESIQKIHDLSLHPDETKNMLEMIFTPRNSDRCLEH", "experiment": "qHTS assay to identify aromatase inhibitors (AID 743083); also: nearly all actives have a fitted effect of over 55% in size"}, "[4]": {"experiment": "qHTS assay to identify aromatase inhibitors - cell viability counter screen (AID 743084);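 also: cells stimulated with testosterone during compound exposure; nearly all actives have a fitted effect of over 55% in size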", "details": "MCF-7 aro ERE viability, CellTiter-Fluor, 24 h; activity change, negative = cytotoxicity: at 70.3 µM (top of the series) unless noted"}, "[5]": {"molecular_target": "Estrogen receptor (Homo sapiens) (UniProt P03372)", "sequence (P03372 whole entry, looked up)": "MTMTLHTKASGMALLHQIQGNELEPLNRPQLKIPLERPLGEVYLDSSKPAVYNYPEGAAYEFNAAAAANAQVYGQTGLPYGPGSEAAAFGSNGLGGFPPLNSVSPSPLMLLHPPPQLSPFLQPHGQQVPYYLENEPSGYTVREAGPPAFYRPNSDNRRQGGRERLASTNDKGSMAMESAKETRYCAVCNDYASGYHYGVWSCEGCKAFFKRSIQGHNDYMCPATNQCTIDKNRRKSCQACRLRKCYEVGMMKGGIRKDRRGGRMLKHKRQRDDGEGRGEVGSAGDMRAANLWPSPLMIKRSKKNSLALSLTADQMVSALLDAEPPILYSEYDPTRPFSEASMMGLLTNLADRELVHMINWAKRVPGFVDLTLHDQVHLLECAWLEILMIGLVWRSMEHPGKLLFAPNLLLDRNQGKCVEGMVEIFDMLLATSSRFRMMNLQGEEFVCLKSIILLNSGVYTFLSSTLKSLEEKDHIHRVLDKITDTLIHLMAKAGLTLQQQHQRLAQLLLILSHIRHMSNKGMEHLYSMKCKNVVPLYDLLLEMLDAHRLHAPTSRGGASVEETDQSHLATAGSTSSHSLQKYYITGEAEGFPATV", "experiment": "qHTS assay to identify small molecule agonists of the estrogen receptor alpha (ER-alpha) signaling pathway (AID 743075; calls by dose curve)", "details": "HEK293 ER-alpha-UAS-bla, beta-lactamase FRET ratio, 18 h; activation: at 70.1 µM (top of the series)"}, "[6]": {"molecular_target": "Estrogen receptor (Homo sapiens) (UniProt P03372)", "experiment": "qHTS assay to identify small molecule agonists of the estrogen receptor alpha (ER-alpha) signaling pathway using the BG1 cell line (AID 743079); also: nearly all actives have a fitted effect of over 20% in size; as to activation: % is scaled to controls: 0 for no effect and ±100 for the full control effect", "details": "BG1Luc4E2 cells, ERE-luciferase agonist, 22 h; activation: at 70.3 µM (top of the series) unless noted"}, "[7]": {"experiment": "qHTS assay to identify small molecule antagonists of the estrogen receptor alpha (ER-alpha) signaling pathway using the BG1 cell line (AID 743080; calls by dose curve;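 also: BG1 cells stimulated with 17beta-estradiol alongside compound; nearly all actives have a fitted effect of over 25% in size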; as to activity change, negative = inhibition: % is scaled to controls: 0 for no effect and ±100 for the full control effect)", "details": "BG1Luc4E2 ERE-luciferase antagonist mode, luminescence; activity change, negative = inhibition: at 70.3 µM (top of the series) unless noted", "method_in_brief": "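Seeding, 24 h rest, compound transfer from DMSO, 17beta-estradiol addition, 21.5 h incubation, CellTiter-Fluor (30 min, 37 C), then ONE-Glo (30 min, room temperature): this sequence was run on BG1-Luc-4E2 reporter cells.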"}, "[8]": {"molecular_target": "Aryl hydrocarbon receptor (Homo sapiens) (UniProt P35869)", "sequence (P35869 whole entry, looked up)": "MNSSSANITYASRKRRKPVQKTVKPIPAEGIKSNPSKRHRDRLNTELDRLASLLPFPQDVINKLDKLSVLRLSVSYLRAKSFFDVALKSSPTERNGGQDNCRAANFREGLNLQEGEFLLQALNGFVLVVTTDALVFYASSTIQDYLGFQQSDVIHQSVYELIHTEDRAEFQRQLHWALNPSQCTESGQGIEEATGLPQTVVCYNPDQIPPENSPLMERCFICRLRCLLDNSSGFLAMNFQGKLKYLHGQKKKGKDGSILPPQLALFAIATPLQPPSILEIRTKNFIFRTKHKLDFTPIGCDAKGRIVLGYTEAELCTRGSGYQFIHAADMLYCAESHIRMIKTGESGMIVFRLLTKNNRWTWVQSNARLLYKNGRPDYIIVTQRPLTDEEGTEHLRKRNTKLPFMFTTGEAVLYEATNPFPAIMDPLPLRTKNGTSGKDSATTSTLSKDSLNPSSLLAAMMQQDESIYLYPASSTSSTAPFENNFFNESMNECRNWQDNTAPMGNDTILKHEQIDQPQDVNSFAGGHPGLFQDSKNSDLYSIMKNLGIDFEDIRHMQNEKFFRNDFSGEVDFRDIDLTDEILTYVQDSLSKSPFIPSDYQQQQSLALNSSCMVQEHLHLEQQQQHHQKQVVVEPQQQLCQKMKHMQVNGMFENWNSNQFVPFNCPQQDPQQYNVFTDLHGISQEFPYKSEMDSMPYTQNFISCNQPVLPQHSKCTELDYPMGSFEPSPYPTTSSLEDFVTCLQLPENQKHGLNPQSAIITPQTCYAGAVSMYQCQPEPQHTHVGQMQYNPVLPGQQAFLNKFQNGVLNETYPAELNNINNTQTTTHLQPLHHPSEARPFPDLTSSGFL", "experiment": "qHTS assay to identify small molecule that activate the aryl hydrocarbon receptor (AhR) signaling pathway (AID 743085); also: nearly all actives have a fitted effect of over 15% in size", "method_in_brief": "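Compounds were tested in HepG2 hepatocellular carcinoma cells harbouring a stably integrated luciferase gene under control of 20 DREs. Increased reporter signal after 24 h treatment at 37C was taken as AhR activation.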"}}, "note": "Where “and” joins values, the source holds several entries; their conditions need not be identical. Equal entries are not always repeated. Inconclusive means that the source gave no clear call. Such entries were picked first, then a sample of the others. For some assays here: Potencies of inconclusive entries are doubtful fits and often do not repeat. Some compounds were tested as several samples or in several runs, with calls that do not always agree. Calls of active or inactive are those of the source. Unless noted, calls follow the shape of the dose curve; as a rule, active = well fitted curve in the direction sought with a large enough effect in the repeat runs; inconclusive = weak or mixed curves; inactive = no such curve, though single readings can be large; an effect the other way counts as inactive or inconclusive. Potency is read from the fitted curve at half-maximal effect; tags tell the direction and shape of the fitted curve or compound fluorescence and quenching.", "data": [{"compound": "CC1=C(/C=C/C(C)=C/C=C/C(C)=C/C=O)C(C)(C)CCC1", "values": [{"measurement": "Potency", "setting": "[1]", "result": "active: 54.6 µM"}, {"measurement": "Potency", "setting": "[2]", "result": "active: 60.8 µM"}]}, {"compound": "C[C@H]1O[C@@H](O[C@H]2[C@@H](O)C[C@H](O[C@H]3[C@@H](O)C[C@H](O[C@H]4CC[C@@]5(C)[C@H](CC[C@@H]6[C@@H]5C[C@@H](O)[C@]5(C)[C@@H](C7=CC(=O)OC7)CC[C@]65O)C4)O[C@@H]3C)O[C@@H]2C)C[C@H](O)[C@@H]1O", "values": [{"measurement": "Potency", "setting": "[1]", "result": "inconclusive: 42.5 nM [cytotoxic, full curve] and active: 19.5 nM and inconclusive: 7.7 nM [cytotoxic, full curve]"}, {"measurement": "Potency", "setting": "[3]", "result": "inconclusive: 386 nM [inhibitor, full curve] and inconclusive: 1.52 µM [inhibitor, full curve]"}]}, {"compound": "Oc1c(Cl)cc(Cl)c(Cl)c1Cc1c(O)c(Cl)cc(Cl)c1Cl", "values": [{"measurement": "Potency", "setting": "[1]", "result": "inconclusive: 3.38 µM [cytotoxic, full curve] and active: 24.5 µM and active: 4.9 µM"}, {"measurement": "Potency", "setting": "[2]", "result": "inconclusive: 21.6 µM [cytotoxic, partial curve] and inconclusive: 17.2 µM [cytotoxic, full curve]"}, {"measurement": "Potency", "setting": "[4]", "result": "inconclusive: 13.3 µM [cytotoxic, partial curve, poor fit] and inconclusive: 5.45 µM [cytotoxic, full curve]"}]}, {"compound": "O=C1OC2(c3ccccc31)c1cc(Br)c(O)c(Br)c1Oc1c2cc(Br)c(O)c1Br", "values": [{"measurement": "Potency", "setting": "[5]", "result": "inconclusive: 44.3 µM [rising, partial curve]"}, {"measurement": "Potency", "setting": "[6]", "result": "inconclusive: 15.8 µM [inhibitor, partial curve, poor fit]"}, {"measurement": "activation", "setting": "[6]", "result": "inconclusive: 0.0503% [phenotype inactive]"}, {"measurement": "activity change, negative = inhibition", "setting": "[7]", "result": "inconclusive: -21.2%"}, {"measurement": "Potency", "setting": "[2]", "result": "active: 11.9 µM and active: 3.91 µM and active: 8.88 µM"}]}, {"compound": "CCCCc1oc2ccccc2c1C(=O)c1cc(I)c(OCCN(CC)CC)c(I)c1", "values": [{"measurement": "Potency", "setting": "[1]", "result": "inconclusive: 19 µM [cytotoxic, partial curve] and inconclusive: 19 µM [cytotoxic, partial curve, poor fit] and inconclusive: 39.2 µM [cytotoxic, single point]"}, {"measurement": "Potency", "setting": "[2]", "result": "inactive"}, {"measurement": "Potency", "setting": "[4]", "result": "active: 43.6 µM"}]}, {"compound": "O=P(O)(O)O", "values": [{"measurement": "Potency", "setting": "[1]", "result": "inactive"}, {"measurement": "Potency", "setting": "[2]", "result": "inconclusive: 48.6 µM [rising, partial curve, poor fit]"}]}, {"compound": "O=CCc1ccccc1", "values": [{"measurement": "Potency", "setting": "[1]", "result": "inconclusive: 11 µM [cytotoxic, full curve]"}, {"measurement": "Potency", "setting": "[4]", "result": "inconclusive: 48.6 µM [cytotoxic, partial curve, poor fit]"}]}, {"compound": "CCCCOCCOCCOCc1cc2c(cc1CCC)OCO2", "values": [{"measurement": "Potency", "setting": "[1]", "result": "inconclusive: 44.2 µM [cytotoxic, partial curve]"}, {"measurement": "Potency", "setting": "[3]", "result": "inactive"}, {"measurement": "Potency", "setting": "[4]", "result": "inconclusive: 69.4 µM [cytotoxic, single point]"}]}, {"compound": "CCCCCCCC/C=C/CCCCCCCC1=NCCN1CCO", "values": [{"measurement": "Potency", "setting": "[1]", "result": "inconclusive: 12.3 µM [cytotoxic, partial curve, poor fit]"}, {"measurement": "Potency", "setting": "[2]", "result": "inconclusive: 34.4 µM [cytotoxic, partial curve]"}]}, {"compound": "Cc1ccc2nc(-c3ccc(N)cc3)sc2c1S(=O)(=O)O", "values": [{"measurement": "Potency", "setting": "[1]", "result": "inconclusive: 27.1 µM [cytotoxic, partial curve, poor fit]"}, {"measurement": "Potency", "setting": "[7]", "result": "inconclusive: 33.8 µM [rising, single point]"}, {"measurement": "Potency", "setting": "[4]", "result": "inconclusive: 19 µM [rising, partial curve]"}]}, {"compound": "CC(C)(c1ccc(O)cc1)c1ccc(O)cc1", "values": [{"measurement": "Potency", "setting": "[1]", "result": "inconclusive: 2.23 µM [rising, full curve]"}, {"measurement": "Potency", "setting": "[4]", "result": "inconclusive: 69.8 µM [cytotoxic]"}, {"measurement": "Potency", "setting": "[8]", "result": "active: 32.2 µM"}]}, {"compound": "CCc1cc(Cc2cc(CC)cc(C(C)(C)C)c2O)c(O)c(C(C)(C)C)c1", "values": [{"measurement": "Potency", "setting": "[1]", "result": "active: 15.5 µM"}, {"measurement": "Potency", "setting": "[2]", "result": "active: 68.6 µM"}]}]}
